# Test system: Mycobacterium smegmatis homogenate
# Test: Stability in Mycobacterium smegmatis homogenate (enzymatic hydrolysis)
# Conditions: 37°C, 48h, substrate 5×10^-4M with 2% ACN, values are kobs × 100
row,Structure (SMILES),kobs × 100 [h^-1]
1,"CCCCOC(=O)c1ccccc1 [Compound 1a, Butyl benzoate]",356 ± 17
2,"CCCCCCOC(=O)c1ccccc1 [Compound 1b, Hexyl benzoate]",332 ± 19
3,"CCCCCCCCOC(=O)c1ccccc1 [Compound 1c, Octyl benzoate]",35.5 ± 0.3
4,"CCCCCCCCCCCCOC(=O)c1ccccc1 [Compound 1e, Dodecyl benzoate]",0.76 ± 0.02
5,CCCCOC(=O)c1ccc([N+](=O)[O-])cc1 [Compound 2a],20.4 ± 3.3
6,CCCCCCOC(=O)c1ccc([N+](=O)[O-])cc1 [Compound 2b],6.05 ± 0.31
7,"CCCCCCCCOC(=O)c1ccc([N+](=O)[O-])cc1 [Compound 2c, Octyl 4-nitrobenzoate]",1.80 ± 0.38
8,CCCCCCCCCCCCOC(=O)c1ccc([N+](=O)[O-])cc1 [Compound 2e],0.88 ± 0.05
9,CCCCOC(=O)c1cc([N+](=O)[O-])cc([N+](=O)[O-])c1 [Compound 3a],11.0 ± 0.8
10,CCCCCCOC(=O)c1cc([N+](=O)[O-])cc([N+](=O)[O-])c1 [Compound 3b],0.86 ± 0.06
11,"CCCCOC(=O)c1cc([N+](=O)[O-])cc(C(F)(F)F)c1 [Compound 4a, Butyl 3-nitro-5-(trifluoromethyl)benzoate]",13.0 ± 1.1
12,"CCCCCCOC(=O)c1cc([N+](=O)[O-])cc(C(F)(F)F)c1 [Compound 4b, Hexyl 3-nitro-5-(trifluoromethyl)benzoate]",0.67 ± 0.06
13,"CCCCNC(=O)c1ccc([N+](=O)[O-])cc1 [Compound 6a, N-butyl-4-nitrobenzamide]",0.91 ± 0.07
14,"CCCCCCNC(=O)c1ccc([N+](=O)[O-])cc1 [Compound 6b, N-hexyl-4-nitrobenzamide]",0.80 ± 0.05
15,"CCCCNC(=O)c1cc([N+](=O)[O-])cc([N+](=O)[O-])c1 [Compound 7a, N-butyl-3.5-dinitrobenzamide]",3.03 ± 0.20
16,"CCCCCCNC(=O)c1cc([N+](=O)[O-])cc([N+](=O)[O-])c1 [Compound 7b, N-hexyl-3.5-dinitrobenzamide]",0.84 ± 0.01
17,"CCCCNC(=O)c1cc([N+](=O)[O-])cc(C(F)(F)F)c1 [Compound 8a, N-butyl-3-nitro-5-(trifluoromethyl)-benzamide]",1.09 ± 0.07
